In all, about 310,000 compounds went through this assay and about 2,200 (0.71%) showed an effect of 50% or more. The effect is printed as a negative number. This is one part of the list.
Molecular target: human ether-à-go-go-related gene (hERG) potassium channel (human, UniProt Q12809)
Experiment: primary screen, population patch clamp on CHO cells stably expressing hERG

Chain of human ether-à-go-go-related gene (hERG) potassium channel (Q12809 whole entry, looked up): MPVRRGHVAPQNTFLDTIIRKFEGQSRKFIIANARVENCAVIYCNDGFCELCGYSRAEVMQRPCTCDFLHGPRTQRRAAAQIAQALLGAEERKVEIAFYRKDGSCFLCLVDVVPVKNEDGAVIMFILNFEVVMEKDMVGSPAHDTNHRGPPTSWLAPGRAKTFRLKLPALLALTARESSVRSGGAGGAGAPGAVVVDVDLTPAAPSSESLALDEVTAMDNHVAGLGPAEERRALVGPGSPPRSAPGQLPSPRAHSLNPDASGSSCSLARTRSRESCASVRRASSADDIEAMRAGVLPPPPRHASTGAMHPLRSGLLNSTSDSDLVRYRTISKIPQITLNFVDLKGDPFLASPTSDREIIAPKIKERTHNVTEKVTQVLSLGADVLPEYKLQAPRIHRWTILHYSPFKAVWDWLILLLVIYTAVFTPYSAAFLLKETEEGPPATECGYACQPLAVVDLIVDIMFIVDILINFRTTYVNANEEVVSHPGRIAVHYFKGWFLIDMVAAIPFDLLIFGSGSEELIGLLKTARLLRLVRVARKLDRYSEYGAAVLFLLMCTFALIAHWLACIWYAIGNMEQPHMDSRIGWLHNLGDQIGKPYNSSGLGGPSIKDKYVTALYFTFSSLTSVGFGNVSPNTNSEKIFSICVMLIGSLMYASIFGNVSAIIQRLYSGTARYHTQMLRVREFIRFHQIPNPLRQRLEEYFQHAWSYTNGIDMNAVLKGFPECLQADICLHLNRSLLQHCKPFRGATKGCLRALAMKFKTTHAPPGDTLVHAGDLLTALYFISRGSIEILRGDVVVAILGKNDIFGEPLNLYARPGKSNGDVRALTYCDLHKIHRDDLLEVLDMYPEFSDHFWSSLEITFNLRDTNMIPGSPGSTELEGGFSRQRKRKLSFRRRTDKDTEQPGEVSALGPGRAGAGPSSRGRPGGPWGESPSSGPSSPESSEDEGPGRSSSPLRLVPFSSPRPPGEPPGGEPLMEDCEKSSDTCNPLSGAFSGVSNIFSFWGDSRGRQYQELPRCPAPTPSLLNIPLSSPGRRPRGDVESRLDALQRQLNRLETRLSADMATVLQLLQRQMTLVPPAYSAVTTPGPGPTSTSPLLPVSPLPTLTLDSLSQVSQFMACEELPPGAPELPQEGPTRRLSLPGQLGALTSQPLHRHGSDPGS

SMILES | hERG current change (%, negative = inhibition) at 1uM [%]
COc1ccc(OC)c(-n2c(SCC(N)=O)nnc2-c2c[nH]c3ccccc23)c1 | 6.16
Cc1ccc(N(C(C)C(=O)N2CCCCC2)S(C)(=O)=O)cc1C (stereo not drawn) | 3.16
Cc1ccc2sc(=O)[nH]c2c1 | 17.6
O=C(C1CC1)n1cc(C(=S)N2CCOCC2)c2ccccc21 | 5.21
COc1ccc(Br)cc1CNC(=O)C1CCN(S(=O)(=O)N2CCCC2)CC1 | -10
O=C(COC(=O)/C=C/c1ccc(F)cc1)Nc1cccc(S(=O)(=O)N2CCCC2)c1 | 13
Nc1nc(NCCc2ccccc2)nc(NCc2ccccc2)c1[N+](=O)[O-] | 13.7
Cc1ccc(/C=N/NC(=O)c2csc(C)c2)o1 | 12.2
N/C(=N\OC(=O)c1ccc(Cl)cc1[N+](=O)[O-])c1ccccn1 | 9.63
CC1(C)CC(C(=O)Nc2ccccc2)C(=O)O1 (stereo not drawn) | 12.6
CCN(CC)S(=O)(=O)c1ccc2c(c1)nc(CCC(=O)O)n2CC | 13.9
O=[N+]([O-])c1ccc(-c2c(-c3ccccc3)ncc3cc(F)ccc23)cc1 | 8.54
COCC(=O)N1CCC(Oc2ccc(C(=O)NCCc3ncccc3C)cc2)CC1 | 15.7
CN1CCN(NC(=O)Nc2cccc(F)c2)CC1 | 10.1
Cc1ccc(C)c(NC(=O)CN(C)C(=O)CN2C(=O)NC3(CCc4ccccc43)C2=O)c1 (stereo not drawn) | 7.82
Cn1cnc(C(=O)N2CCN(C(=O)OC(C)(C)C)CC2)c1C(=O)N1CCN(C(=O)OC(C)(C)C)CC1 | 15.7
CC1(C)N=C(/C=N/O)CN1O | 14
Cc1oc(CC(C)C)c(CN2CCCC2)c1C(=O)O.Cl | 3.8
Nc1nc(SCC(=O)NCCN2CCOCC2)nc2sc3c(c12)CCC3 | -11.5
O=C(Nc1cccc(S(=O)(=O)N2CCCCC2)c1)c1cnccn1 | 3.58
Cc1cc(/C=C2/NC(=O)NC2=O)c(C)n1-c1ccc(C#N)cc1 | 3.44
O=C(/C=C/c1cccs1)N1CCCC1 | 13.7

SMILES | hERG current change (%, negative = inhibition) at 1uM [%]
COc1ccccc1/C=C/C(=O)N1CCOCC1 | 12.4
C=CCN(CC=C)C(=S)NC(=O)c1ccc([N+](=O)[O-])cc1 | 11.4
COc1ccc(CCNC(=O)C2CCCN2C(=O)Nc2ccc(Cl)cc2)cc1OC (stereo not drawn) | 8.1
CC(=O)NC(Cc1ccccc1C)C(=O)NC1CCN(C(=O)c2cccc(C)c2)CC1 (stereo not drawn) | 28.8
CC1CN(C(=O)COC(=O)c2ccc(S(=O)(=O)N(C)C)cc2)CC(C)O1 (stereo not drawn) | 15.2
Cc1ccccc1NC(=O)c1ccc2ccccc2c1 | 3.72
O=C(Cc1ccccc1)N1CCC2(CC1)NCCc1[nH]cnc12 | 20.4
CC(C)C(NC(=O)c1ccc(C(C)(C)C)cc1)C(=O)NC1=NCCS1 (stereo not drawn) | 3.43
CCOc1ccc(OCC)c(NC(=O)c2ccc(CNc3c(N4CCOCC4)c(=O)c3=O)cc2)c1 | 7.51
COc1cccc(C2=NOC(C(=O)Nc3ccc(OC)c(OC)c3)C2)c1 (stereo not drawn) | -2.07
CN(C)C1(CNC(=O)C2CCN(S(=O)(=O)c3cccc(C(F)(F)F)c3)CC2)CCCCC1 | -14.1
Cc1cc(C)n2nc(C(=O)Nc3ccc(S(=O)(=O)N4CCCC4)cc3)nc2n1 | 0.932
CC(C)C(=O)NCC(c1cccs1)S(=O)(=O)c1ccc(F)cc1 (stereo not drawn) | 14.1
CC(C)CNC(=O)c1cc(=O)[nH]c2ccc(S(=O)(=O)Nc3ccc(F)cc3)cc12 | 10.8
c1ccc(C2C3=C(Nc4ncnn42)c2ccccc2CCC3)cc1 (stereo not drawn) | 14.8
CCCCC(CC(O)COCCC)C(=O)NN (stereo not drawn) | 11.3
Cc1cccc(N(Cc2cc3ccc(C)cc3[nH]c2=O)C(=O)c2ccco2)c1 | 0.743
CCCCc1cc(=O)oc2cc(C)cc(OCC(=O)N[C@@H](CSCc3ccccc3)C(=O)O)c12 | 13.8
O=C(CC1C(=O)NCCN1Cc1ccc(Cl)c(F)c1)NC1CCC1 (stereo not drawn) | 14
CC(=O)O[C@@]12CO[C@@H]1C[C@H](O)[C@@]1(C)C(=O)[C@H](O)C3=C(C)[C@@H](OC(=O)[C@H](O)[C@@H](NC(=O)c4ccccc4)c4ccccc4)C[C@@](O)([C@@H](OC(=O)c4ccccc4)C12)C3(C)C (stereo partly drawn) | -2.75
CCC(CC)C(=O)Nc1nnc(SCC(=O)NC(C)(C)C)s1 | 10.7
OC(COc1cccc2ccccc12)CN1CCN(c2ccccc2Cl)CC1 (stereo not drawn) | -8.1

SMILES | hERG current change (%, negative = inhibition) at 1uM [%]
O=C(CSc1nc(O)cc(=O)n1-c1ccccc1)NCc1ccccc1 | 5.12
Cc1ccc(NC(=O)c2cc([N+](=O)[O-])ccc2N2CCOCC2)cc1S(=O)(=O)N1CCOCC1 | -8.48
Cc1ccnc(NC(=O)CCC(=O)N(CC(=O)NCc2ccc(F)cc2)CC2CCCO2)c1 (stereo not drawn) | 8.36
CN(Cc1cn(C)c2ccccc12)C(=S)Nc1cc(F)cc(F)c1 | -8.94
COc1ccc(CNCCc2ccccc2)cc1OCC(N)=O | -1.89
CCOc1ccc(CN(C)c2nc(-c3cccnc3)nc3ccccc23)cc1OC | 12.3
CCCCOC(=O)/C=C\C(=O)OCCCC | 14.7
COc1cc(/C=C/C(=O)OCC(=O)c2c(N)n(C)c(=O)n(C)c2=O)ccc1OCC#N | 5.72
O=c1c2ccccc2c(C=Nc2ccc(Cl)cn2)c(O)n1-c1cc(Cl)ccc1N1CCOCC1 | 6.33
O=P(O)(Cc1ccccc1)Cc1ccccc1 | 15.8
O=C(NCc1ccc(F)cc1)c1cc(S(=O)(=O)N2CCOCC2)ccc1F | -5.39
COc1ccc(-c2cc3ccccc3n2CC(O)CNCCO)cc1.O=C(O)C(=O)O (stereo not drawn) | 10.2
C/C(=N\NC(=O)c1cc(-c2ccc(C)s2)nc2ccccc12)c1cccnc1 | 3.29
O=c1c2c3c(sc2nc2n1CCCC2)CCCCC3 | 7.25
C=CCn1c2ccccc2c2nnc(SCCN3CCOCC3)nc21 | 14.8
Cc1ccc(Cn2ncc3c(N4CCOCC4)ncnc32)cc1 | -4.1
O=C1CC(N(O)C2CC(=O)N(Cc3ccccc3)C2=O)C(=O)N1Cc1ccccc1 (stereo not drawn) | -8.12
COc1ccccc1/C=C/C(=O)c1c2c(c(C)[nH]c1=O)CCCC2 | 7.36
CC(C)n1c(C(F)(F)F)nc2cc(C(=O)N3CCCCC3)ccc21 | 10
Cc1cc(Cl)c(S(=O)(=O)NC2CCCC2)cc1OCC(N)=O | 11.5
CCOC(=O)CC(NC(=O)c1cc2cc(Br)ccc2oc1=O)c1cccc([N+](=O)[O-])c1 (stereo not drawn) | 9.71
CC(C)CNC(=O)CSc1nnc2ccccn12 | 5.44

SMILES | hERG current change (%, negative = inhibition) at 1uM [%]
COc1ccc(C2CCCN2C(=S)Nc2c(C)cccc2C)cc1OC (stereo not drawn) | 9.38
CN(C)CC#Cc1cncc(C(=O)NNC(=O)Nc2ccc(Cl)cc2)c1 | 9.93
COc1c(C)cc(Br)cc1C(=O)Nc1ccc(S(N)(=O)=O)cc1 | 8.42
CCc1ccc2[nH]c(=O)c(CN(Cc3ccc4c(c3)OCO4)C(=O)c3ccco3)cc2c1 | -4.28
CSc1ccc(S(=O)(=O)NC2CC3CCC2C3)cc1 (stereo not drawn) | 18.2
CC(C)(C)n1c(O)c2ccc(C(=O)N=NC(=O)c3ccccc3)cc2c1O | 7.88
O=C(O)Cn1nnc2ccccc21 | -0.568
COc1c2ccoc2c(OC(C)=O)c2oc(C)cc(=O)c12 | 25
CN1C(=O)C(C)(C)c2cc(S(=O)(=O)N3CCC(C(=O)NCc4ccc(Cl)cc4)CC3)ccc21 | 7.44
Cc1c(CC(=O)O)c(=O)oc2c(C)c(OCc3ccc(F)cc3F)ccc12 | 18.4
CCCc1nnc(NC(=O)CCC(=O)N2CCN(Cc3ccc(Cl)cc3)CC2)s1 | 5.25
CCn1c(=O)n(CC)c2cc(N3CCCC3)c(NC(=O)c3cc(Cl)ccc3OC)cc21 | 11.6
CCC(C)NC(=O)C1(O)c2ccccc2NC(=O)N1c1ccc(C)c(C)c1 (stereo not drawn) | 16.7
CCCCc1nnc(SCC(=O)Nc2nccs2)n1C | 11
O=P(/C(=N/O)N1CCOCC1)(N1CCOCC1)N1CCOCC1 | 11
O=C(NNC(=O)c1ccc2nc[nH]c2c1)c1ccccc1 | 13.2
Br.CCn1c(-c2cc(OC)ccc2OC)csc1=Nc1c(C)n(C)n(-c2ccccc2)c1=O | 15.2
O=C(NNc1nc2ccccc2s1)Nc1ccc(F)cc1 | 2.13
CN(Cc1c(F)cccc1Cl)C(=O)C1CC(=O)N(CCc2ccccc2)C1 (stereo not drawn) | -4.62
Cc1ccnc(NC(=O)CSc2cc(=O)n(C)c3ccccc23)c1 | 18.2
COc1ccc(S(=O)(=O)N2CCOCC2)cc1NC(=O)CN1C(=O)NC2(CCCCC2C)C1=O (stereo not drawn) | 1.41
